# In all, about 33,000 sequences were measured (“E-score (-0.5 to 0.5)”: median about -0.041, highest 2% from about 0.37 on). The list shows a part of the results.
# Molecular target: T1, Ecm22 (UniProt Q05958)
# T1 sequence: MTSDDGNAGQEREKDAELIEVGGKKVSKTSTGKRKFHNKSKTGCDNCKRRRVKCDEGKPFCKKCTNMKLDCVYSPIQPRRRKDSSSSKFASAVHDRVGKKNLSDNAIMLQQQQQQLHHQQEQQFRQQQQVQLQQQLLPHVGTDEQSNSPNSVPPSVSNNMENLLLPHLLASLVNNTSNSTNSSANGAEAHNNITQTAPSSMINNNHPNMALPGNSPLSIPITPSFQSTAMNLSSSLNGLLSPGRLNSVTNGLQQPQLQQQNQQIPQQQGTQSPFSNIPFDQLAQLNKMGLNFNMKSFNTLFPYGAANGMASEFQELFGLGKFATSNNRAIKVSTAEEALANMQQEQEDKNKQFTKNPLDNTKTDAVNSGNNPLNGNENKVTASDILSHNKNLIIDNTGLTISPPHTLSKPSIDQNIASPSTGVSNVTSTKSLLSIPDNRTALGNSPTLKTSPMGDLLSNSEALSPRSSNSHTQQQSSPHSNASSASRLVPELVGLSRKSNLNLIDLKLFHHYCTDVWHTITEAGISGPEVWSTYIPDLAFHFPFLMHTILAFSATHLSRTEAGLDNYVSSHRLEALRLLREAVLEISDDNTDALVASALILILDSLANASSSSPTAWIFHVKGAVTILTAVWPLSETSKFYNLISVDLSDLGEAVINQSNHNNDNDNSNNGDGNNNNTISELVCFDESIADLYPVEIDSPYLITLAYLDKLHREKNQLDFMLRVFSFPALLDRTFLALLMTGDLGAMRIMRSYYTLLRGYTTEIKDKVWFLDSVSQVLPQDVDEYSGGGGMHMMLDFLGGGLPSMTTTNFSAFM
# Experiment: PBM E-score (8-mer binding enrichment) (E-score (-0.5 to 0.5)); higher = stronger / more preferred TF binding; most listed sequences are background and not binding sites
# Conditions: protein concentration: 200 nM; construct: GST-full length
# How it was run: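 Detection of bound protein used fluorescent anti-GST, with scans normalised by masliner. The proteins were GST-tagged yeast transcription factors applied at about 100-200 nM to universal all-10-mer Agilent arrays made double-stranded by primer extension. Each ungapped eight-base word, pooled with its reverse complement, was scored with an E-score from the Universal PBM Analysis Suite.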
row,Sequence,PBM E-score
1,CTCAAGAG,-0.236
2,CACTAATA,-0.0153
3,AGACACCT,-0.153
4,AGCATGCA,-0.171
5,ATATTGTA,0.125
6,CCTTACCG,0.173
7,ATGTAGAC,-0.213
8,ATAGTTAG,0.151
9,TAGGATGA,-0.0177
10,GTATTGTA,0.18
11,CAATGATC,0.0322
12,ATTGGACA,-0.0327
13,ATAGTACG,0.325
14,AAGCCAAG,-0.217
15,CATCGATG,-0.0644
16,CACACGGA,-0.0352
17,CTGCGACA,0.059
18,GGGCTACC,-0.271
19,ATACCAGG,-0.0891
20,AGATTAAC,0.155
21,CCACGGGC,-0.199
22,ACAATTGA,0.127
23,ACGCAGAA,0.176
24,GTTTAAGA,0.184
25,ACCGCAGC,-0.0492

row,Sequence,PBM E-score
1,AGTTTGAA,-0.213
2,CTCTCAGC,-0.285
3,CCCGCTCG,0.153
4,CCGCTGTC,-0.051
5,CACGTAAG,0.0432
6,AAGCCTGC,-0.0619
7,CCAGCAAA,0.101
8,TATACCGA,0.321
9,ATTGACAA,-0.176
10,AAATACTA,-0.0449
11,AAATTTGC,-0.0929
12,ATAGCTGG,-0.133
13,AGGGGCGG,-0.0152
14,ACCTAGCG,-0.00722
15,CAATAGGG,-0.0793
16,CGAGTCCC,0.13
17,AAACCCAC,0.0248
18,ACATTGTC,0.124
19,ATAATCAG,-0.128
20,CATGGGTA,-0.147
21,CGTATGAC,0.407
22,GTCTGGTA,0.00642
23,TCTACCCA,0.084
24,GGCTCGAA,0.0317
25,GATGAAGC,-0.137

row,Sequence,PBM E-score
1,GAGGACCC,-0.116
2,ACCATAGC,-0.261
3,AAAAATTC,-0.106
4,ACACGTTA,-0.126
5,AAAAGCAC,-0.0145
6,CACGTGCG,0.0495
7,CACCTCCA,-0.166
8,TAACAACA,0.144
9,CTTGTTGC,-0.159
10,ATTAGCCG,0.128
11,ACACACAA,-0.00806
12,CGAGCGCC,0.264
13,CGAGGACC,0.318
14,AGCTGAGG,-0.203
15,CCGGTTCG,0.156
16,ACCCCTAA,-0.228
17,ACAAAGGT,-0.0439
18,ACAAACGT,0.0208
19,CCAACCGA,0.264
20,AGGCCCCA,-0.182
21,GATGCAGA,-0.156
22,CTAACGAG,0.331
23,CCTGAACG,0.292
24,GGATCCTA,0.059
25,AGCTTTAT,-0.138

row,Sequence,PBM E-score
1,ATTTCCAA,-0.0471
2,CCATCCAG,-0.292
3,CTCGCGGA,0.0415
4,AAATAGCA,-0.186
5,GACATTGA,0.135
6,CACTAGAC,-0.0964
7,AGCTCACA,-0.228
8,ACTGCTAA,-0.357
9,ATAGTGCA,0.0533
10,ACGAGCGT,0.389
11,CGTCTGGA,-0.174
12,AGCCATGC,-0.17
13,AGATGGGG,-0.368
14,AACTTAGA,-0.0444
15,GTATAGGA,0.232
16,GCCCCAGC,-0.244
17,AAGTTCCC,-0.0835
18,AGGACTTG,-0.303
19,GCGAAGGA,0.0791
20,ATTCCACA,0.0456
21,AAAGTCTA,-0.186
22,ACTGACGC,-0.125
23,GAGAACAA,0.124
24,TGCTGCCA,-0.14
25,CCCATCAA,0.0874

row,Sequence,PBM E-score
1,CACCTTCC,-0.0449
2,ACGGCCCA,0.152
3,ATTGGGCA,-0.161
4,AGTTTCCG,0.17
5,CAGTCTAG,-0.0959
6,CTAGGTCA,-0.288
7,ATCGCTGG,-0.149
8,TGAATCAA,0.0462
9,ATCATCTC,0.0439
10,ACGTAGAA,0.158
11,GTTCAACA,0.0576
12,AAACACCA,-0.231
13,CACTGCAA,0.051
14,ACGTCGCT,0.241
15,TAAGGTCA,-0.27
16,AATCGGCG,-0.00384
17,CCATAAGG,-0.254
18,CGCCCGGA,-0.0269
19,GGTTCCAC,-0.237
20,AGGATTTC,-0.0414
21,ACGGGTCT,-0.124
22,CCTGTCAG,-0.0921
23,AAGTAGCA,-0.137
24,ATGGAACC,-0.0738
25,ACTGCGCC,-0.169

row,Sequence,PBM E-score
1,ATAACAAA,-0.0553
2,ACCTTGTG,-0.0515
3,AGACAGGG,-0.277
4,ACAACTTA,-0.00504
5,GTCCGTTA,0.167
6,AAAATACA,-0.0245
7,CGAATAGC,0.172
8,CAGTCACC,-0.218
9,GAAGGGCA,-0.243
10,CCCCCACG,-0.33
11,GTCATGCA,-0.12
12,ACATCGGA,0.175
13,AGCCTGTG,-0.21
14,ATCTCTAC,-0.0271
15,GACTTTAA,-0.109
16,CACTGCCG,0.0398
17,AAATTAAG,-0.0793
18,CCATGCGG,-0.162
19,CTATAACC,0.163
20,AGTTATTA,0.0743
21,CTTCCTGC,-0.314
22,CAGTGCTA,-0.0731
23,AACACTAA,-0.0969
24,GATAAGGA,-0.0834
25,GGAAATGA,-0.0702

row,Sequence,PBM E-score
1,AACAACTG,-0.112
2,AATCACGT,0.182
3,CGCTAGCA,-0.149
4,GCACGAAC,0.222
5,CCATCTAA,-0.215
6,GGAATCAC,-0.0614
7,AGAGCACG,-0.0628
8,AGGCCGAG,-0.00222
9,TGGCTGAA,-0.242
10,ATGTCGGG,0.0227
11,CAGATCGA,-0.0331
12,GATACATC,0.0609
13,AAAAAACT,-0.14
14,ATGTCTAC,0.0246
15,ATGTTGGA,0.00637
16,GCTTTCCA,-0.0729
17,GGTTTTCA,0.0909
18,CTCCAAAG,0.00115
19,AAGATGCC,-0.12
20,ACTTTAGC,0.00477
21,AGGGGAAC,0.0609
22,CATAAACC,-0.0464
